Results as given in the supplement of paper PMC3334620.
The full ranking holds about 33,000 sequences; the median of “E-score (-0.5 to 0.5)” is about -0.056, and the highest 2% start at about 0.38. This is one part of the list.

target: Stb4 (UniProt P50104); test: PBM E-score (8-mer binding enrichment) (E-score (-0.5 to 0.5)); higher = stronger / more preferred TF binding; most listed sequences are background and not binding sites; conditions: protein concentration: 200 nM; construct: GST-DNA-binding domain
How it was run: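 Full-length yeast transcription factors or their DNA-binding domains, GST-tagged and expressed with PURExpress, were applied at about 100-200 nM to universal all-10-mer Agilent arrays. These arrays had been made double-stranded by primer extension on fresh or once-stripped slides. Detection used fluorescent anti-GST, normalisation used masliner, and E-scores for ungapped eight-base words pooled with reverse complements came from the Universal PBM Analysis Suite.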

Sequence | PBM E-score
AGCCCCAC | -0.0851
AGTGGAGC | -0.233
ATAAATCA | -0.229
CGGAGCTA | 0.21
AGGTGGCA | -0.0654
TATGCCAA | -0.209
CCGGTGAA | 0.203
AACTTGAC | -0.175
CTACGGAA | 0.222
CCCTGCAC | -0.0965
GCATTAGA | -0.0482
GCGCCGAC | 0.195
GATACCGA | 0.291
GAGAGTAC | -0.141
GGATACCA | 0.213
AAGGTCGT | -0.257
AGGGAGTC | -0.203
AAAGCCTC | -0.00345
CCATTGCA | -0.322
CAATTGAC | -0.153
CTCGAACA | -0.237
ACCGACCG | 0.219
AGTTCTAC | -0.25
CCGTAGCC | 0.102
ACTTACTG | -0.0168

Sequence | PBM E-score
CCACCGCC | -0.0563
ATTTGGCA | -0.19
GAGACTCA | -0.119
GCCTGTTA | -0.103
AGATGAAG | -0.0847
GGCAACCA | 0.0103
ACTCATGG | -0.198
ATTTCTTC | 0.0792
AGGGGCTG | -0.203
CTATCCTA | 0.0276
CGGTAATC | 0.29
AGCATCCA | -0.115
GCAAATCC | 0.139
ATGGTTAG | 0.0424
CTCCACAC | -0.0586
AACCGGAG | 0.23
CTGCAAAG | -0.28
GGGGAGCA | -0.1
GCCGCCAC | -0.0982
CTGCTTAA | -0.0228
CTGCCCAG | -0.0952
CCAGTTAG | -0.273
CTGAAGTA | -0.102
ACAACGTG | -0.147
CAGCTAAG | -0.386

Sequence | PBM E-score
GGCTAGAC | 0.114
CGGCAACG | 0.285
AACGGCTT | 0.0277
CTCATGTC | -0.129
GCAGGTGA | -0.137
AGCCATGG | -0.307
ATCGGTTC | 0.261
AGCCTTCC | 0.0678
TACGGCTA | 0.142
CAGATGAG | -0.253
CTAGGGCC | -0.224
CCGATCAC | 0.287
TAAACCGA | 0.309
CGTGGGGA | -0.0676
AGGGCCAT | -0.253
AGCCCTGC | -0.234
GTTCGTCA | -0.118
AGCTCCGA | 0.371
CCGCTAAG | 0.0575
CGGGCCCG | 0.419
AGTAGATG | -0.153
CAGGCCAC | -0.134
CAGACGCG | -0.152
GGGAGTAA | 0.114
AGGGGTAC | -0.0696

Sequence | PBM E-score
CTATTCAA | -0.178
GTGACACA | 0.0185
ACCGGGAA | 0.335
AGCACGCG | -0.0461
ACTCATTG | -0.0916
AGCTTGGC | -0.17
GGGGCCAA | -0.14
AGAGCTGG | -0.00157
GGAGCCCA | -0.203
GACTGTAA | -0.137
GCCTTTGA | -0.0711
ACTTAGGA | -0.382
GTAGTTAA | -0.0019
GCTATAGA | -0.0826
CGGACCTC | 0.124
CCGGAGTC | 0.257
CGCTTGGC | -0.246
CGAGACTA | 0.0386
AGTTTAAC | -0.108
GATGCGGC | 0.0547
AGTAGACC | -0.0468
CTGCCTGC | -0.152
CACCCCTA | -0.117
GTAGCCCA | -0.273
GCAGGGGA | -0.11

Sequence | PBM E-score
CGGAACGC | 0.407
AGCCTGGC | -0.26
ATACCCTA | -0.224
CGTTGCAA | -0.109
AATCTCTA | -0.247
GCTAAGAC | -0.0991
CTGTATCC | 0.215
CCGTTGGC | 0.147
ATAAACGC | -0.11
CAAGCTCG | 0.273
CACCGCCG | 0.0771
CAATATGA | -0.0295
CTATATTC | -0.0432
ACGAGGCT | -0.0598
CTAATGGA | -0.106
CCCCGATC | 0.292
GGGCATGA | -0.248
GTGTTTTA | -0.117
CCTCCGGA | 0.307
AACGAGGT | -0.293
AACACCAG | -0.242
CCGAGCAG | 0.377
ATTAACCA | -0.136
AACTGGTA | 0.00946
TTTCAAAA | -0.0201

Sequence | PBM E-score
TAGGGGGA | -0.242
GTTCCGAA | 0.479
AGTACACT | -0.153
TCAGCAGA | -0.141
CGCTCGTA | -0.176
TAACTGCA | -0.243
CTACAATA | -0.0313
AAGTGAGA | -0.202
TAGCGGGA | 0.0959
GCTACAAC | -0.0217
ATTCTCTC | -0.0327
ATCATCAA | -0.0541
TCGATGAA | -0.0646
GTCCCTCA | -0.295
CGGTCTCA | 0.0227
GTCAAGCA | -0.119
AGTTAAAT | -0.0935
ATTCAACC | 0.00448
TAAGTGGA | -0.106
AGTCGCTG | -0.325
CCGGAAGC | 0.395
ATCTCCAA | -0.151
ACAGTAAG | -0.162
ATAATGAT | -0.15
CTTTCTCA | -0.0478

Sequence | PBM E-score
GAAAAAAC | 0.101
CTTGATGC | -0.241
AGATGGAG | -0.114
AGGTGCCA | -0.164
CACCTGGC | -0.124
GAGTAGGC | -0.104
ATACGGTA | 0.0261
ATACCACA | 0.0431
GCGGTAGC | 0.0408
TCGGCAGA | 0.41
ACCCAACC | -0.0362
AAGAACTT | 0.0294
GAGACGAA | 0.0232
CGAGACCC | 0.286
CGTGTTCC | 0.282
CTTCGTTC | -0.215
GCGTCTCC | -0.0256
ACCGCTTC | 0.0283
CCAGGTGA | -0.352
AGGGGGAC | -0.225
CCAATCTC | 0.0152
ACCTAACC | 0.101
ATGGTATG | -0.0811
GTATCTTA | 0.0901
CCAAATAA | -0.151

Sequence | PBM E-score
AAATCAAG | -0.0968
ACATGACA | -0.0109
CTCCTTTC | 0.041
CAGCGTAC | -0.0549
AAGCTTTA | -0.219
ACACTTCC | 0.246
GACCCAAC | -0.116
ACCGTGTC | 0.142
CCAAGGCA | -0.123
GGGTCGAC | 0.0843
CTCCGGCA | 0.337
AATGTCGC | -0.0427
ATTTCTCA | -0.239
TCAAATAA | -0.0118
ATGGGTTC | -0.152
AGGGTATA | -0.029
ACTGTAGA | -0.184
CAGGTCGC | -0.295
CGGGGTAC | 0.13
GCCTATCA | -0.0989
ATGTGATC | 0.102
CGTATAAA | 0.168
GGTCGCAA | 0.0482
GCGGGGGA | 0.0109
ATCACTTG | -0.176

Sequence | PBM E-score
CCATCACC | -0.0824
ATATAGGA | -0.225
CCACAAGC | -0.128
CAACGCCG | 0.109
ACTCAGTA | 0.0263
GACTCAGC | -0.191
CTACTCAA | -0.278
AAGGCACC | 0.00752
CCGTGTAA | 0.095
GCGGGGCA | 0.0728
CAGCTTTC | -0.0811
AACAGAAG | -0.176
CTACGCGC | 0.0736
GCGATTGA | -0.113
TAAGGCCA | -0.139
GCGGTGAC | 0.0445
TCTGCGAA | -0.386
ACAGTTCT | -0.0692
CGAGCAAG | -0.0695
